About 50,000 (12%) of roughly 420,000 compounds were called active. This list was built around the results that the source calls inconclusive (neither active nor inactive); the mix of calls is not that of the screen. Calls follow the shape of the dose curve; as a rule, active = well fitted inhibition curve with a large enough effect; inconclusive = small, poorly fitted or top-dose-only effect; inactive = flat fitted curve, though single readings scatter. No potency is given beside an inconclusive call; the fits are too rough.
Assay: qHTS for Inhibitors of human tyrosyl-DNA phosphodiesterase 1 (TDP1): qHTS in cells in presence of CPT; also: nearly all actives have a fitted effect of over 55% in size
Conditions: chicken DT40 Tdp1-/-;hTDP1 cells + 20 nM CPT, ATP luminescence, 48 h; activity change, negative = growth inhibition: at 46.2 µM (top of the series)
In short: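 Chicken DT40 Tdp1-/- cells complemented with human TDP1, 400 cells/well, exposed to compounds plus 20 nM camptothecin for at least 48 h at 37 C; viability read as ATP content by CellTiter-Glo luminescence.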
% is scaled to controls: 0 for no effect and ±100 for the full control effect; potency is read from the fitted curve at half-maximal effect; tags tell the direction and shape of the fitted curve.

Row | Structure (SMILES) | Potency | activity change, negative = growth inhibition
1 | COc1ccc(-c2oc3c(c2C#CC2(O)CCCCC2)C(OC)CCC3)cc1 (stereo not given) | inconclusive [inhibitor, single point] | 
2 | C[C@@H]1CN(C(=O)c2nc3ccc(Cl)cn3c2CNCC[C@@H]2C[C@@H]3C=C[C@H]2C3)C[C@H](C)O1 | inconclusive [inhibitor, single point] | 
3 | O=C(NCc1ccc2c(c1)OCO2)C(=O)NCC(c1ccco1)N1CCN(c2ccccc2)CC1 (stereo not given) | inconclusive [inhibitor, partial curve] | 
4 | COc1cc(C(=O)Nc2ccc(S(=O)(=O)N3CCCCC3C)cc2)cc(OC)c1OC (stereo not given) | active: 20.6 µM | 
5 | CCCOc1ccccc1NC(=O)/C=C/C(N)=O | active: 1.26 µM | 
6 | CCOc1cccc(C=Nc2cc(C)cc(C)c2O)c1O | active: 14.6 µM | 
7 | Cc1ccc(C(=O)CNc2ccc(Cl)cc2)cc1 | inconclusive [inhibitor, single point] | 
8 | O=C(NCCc1csc2nc(-c3ccc(F)cc3)nn12)c1ccco1 | inconclusive [inhibitor, single point] | 
9 | Cc1cccc(NC(=O)Cn2c(C(F)(F)F)nc3ccccc32)c1C |  | inactive: -26.9%
10 | O=C(Nc1ccncc1)c1cc2ccccc2o1 | inconclusive [inhibitor, partial curve, poor fit] | 
11 | CCOc1cc2c(cc1OCC)C(c1c(F)cccc1Cl)CC(=O)N2 (stereo not given) | inconclusive [inhibitor, single point] | 
12 | Cc1ccc(S(=O)(=O)n2nc(-c3ccc(Cl)cc3)nc2NCc2ccco2)cc1 | inconclusive [inhibitor, single point] | 
13 | C[N+]1(CC(=O)c2ccccc2)CCc2ccccc2C1 (stereo not given) | inconclusive [inhibitor, single point] | 
14 | Cn1c(=O)[nH]c(=O)c2c1nc(SCC(N)=O)n2Cc1cccc(Br)c1 |  | inactive: -12.4%
15 | CC(=O)Nc1ccc(C(=O)N2CCCCC2c2cc(C(=O)Nc3cccc(C#N)c3)no2)cc1 (stereo not given) | inconclusive [inhibitor, single point] | 
16 | COc1ccc(C)cc1NC(=O)Cn1cc(S(=O)(=O)Cc2ccccc2Cl)c2ccccc21 | inconclusive [inhibitor, single point] | 
17 | O=C(NCCCN1CCOCC1)c1ccc2c(c1)N(Cc1cccc(F)c1)C(=O)c1ccccc1S2 | inconclusive [inhibitor, single point] | 
18 | O=C(CN(Cc1ccccc1F)S(=O)(=O)c1ccc(Cl)cc1)NCC1CCCO1 (stereo not given) |  | inactive: -0.383%
19 | CCSc1ccc2cc(OC)ccc2[n+]1CC | active: 5.8 µM | 
20 | Cc1ccc(S(=O)(=O)N2CCN(S(=O)(=O)N3CCCCC3)CC2)c(C)c1 |  | inactive: -16.7%
21 | Cc1ccc(-c2cc(C(=O)N3CCN(c4ccccc4)CC3)c3ccccc3n2)cc1C | inconclusive [inhibitor, single point] | 
22 | CC1CCN(C(=O)c2ccc(S(=O)(=O)Cc3ccccc3F)c([N+](=O)[O-])c2)CC1 | inconclusive [inhibitor, single point] | 
23 | COC(=O)c1cc(NC(=O)CCc2c(C)nc3cc(-c4ccccc4)nn3c2C)cc(C(=O)OC)c1 |  | inactive: 7.31%
24 | CC1CCN(S(=O)(=O)c2cc(C(=O)Nc3ccc(Br)cc3F)n(C)c2)CC1 | inconclusive [inhibitor, single point] | 

Row | Structure (SMILES) | Potency | activity change, negative = growth inhibition
25 | COc1ccc([C@H]2N[C@]3(CCCN(Cc4ccc(Br)cc4)C3=O)[C@H]3C(=O)N(Cc4ccccc4)C(=O)[C@@H]23)cc1 | inconclusive [inhibitor, single point] | 
26 | C#CCNC(=O)C[C@@H]1C[C@@]2(C(=O)OCC)CCCC=C2N(CCCCCCCC)C1=O | active: 16.4 µM | 
27 | CCOC(=O)c1cccc(NC(=O)Nc2ccc(OCC)cc2)c1 | inconclusive [inhibitor, single point] | 
28 | Cc1ccc(CN2CCN(Cc3cnn(-c4ccc(Cl)cc4)c3)CC2CCO)o1 (stereo not given) | inconclusive [inhibitor, partial curve] | 
29 | CCCCCCC1CCC(C(=O)NC(CCSC)C(=O)NC(C(=O)OC)C(C)C)CC1 (stereo not given) | inconclusive [inhibitor, partial curve] | 
30 | Cc1sc2c(c1C)c(=O)n(-c1ccc(Cl)cc1)c(=O)n2Cc1c(F)cccc1Cl |  | inactive: -27.9%
31 | CCOC(=O)c1c(S(=O)(=O)N2CCC(C(=O)N3CCN(c4cc(C)ccc4C)CC3)CC2)c(C)n(C)c1C | inconclusive [inhibitor, single point] | 
32 | CCS(=O)(=O)NCCNc1ccc([N+](=O)[O-])cc1 |  | inactive: -9.24%
33 | O=C(NC1CCCCC1)c1ccc(CSc2nc3cccnc3n2Cc2ccccc2F)cc1 | inconclusive [inhibitor, single point] | 
34 | C/C(N)=C(/C#N)C(=O)COC(=O)CNC(=O)c1ccc(Cl)cc1Cl |  | inactive: 7.78%
35 | O=C(Cn1ncc2c(Cl)cccc21)NCc1cccc(Br)c1 | inconclusive [inhibitor, single point] | 
36 | Cc1ccc(Cn2c(CCCNC(=O)C3CCCCC3)nc3ccccc32)cc1 | active: 16.4 µM | 
37 | C/C(=N\NC(=O)c1cc(C2CC2)nc2ccccc12)c1ccc(C)s1 | inconclusive [inhibitor, single point] | 
38 | CCCC(=O)OCCNc1cc(Sc2nc3ccccc3[nH]2)c2nonc2c1[N+](=O)[O-] | active: 2.31 µM | 
39 | CC(C)CCNC(=O)c1ccc2c(c1)N(Cc1ccccc1F)C(=O)c1ccccc1S2=O (stereo not given) | inconclusive [inhibitor, single point] | 
40 | COc1ccc(C(=O)Nc2ccccc2C(=O)NC(Cc2c[nH]c3ccccc23)C(=O)O)cc1 (stereo not given) | inconclusive [inhibitor, single point] | 
41 | CCOc1cc(N2CCOCC2)c(OCC)cc1NC(=O)COC(=O)C1CCCN1S(=O)(=O)c1ccccc1F (stereo not given) | inconclusive [inhibitor, single point] | 
42 | Cc1cc(-c2ccccc2)c2c(=O)[nH][nH]c2n1 |  | inactive: -0.803%
43 | COc1ccc(NC(=O)Cn2nnc(C(=O)NCc3cccs3)c2N)c(OC)c1 | inconclusive [inhibitor, single point] | 
44 | Cc1nc2cc(NC(=O)N3CCN(c4ccccn4)CC3)ccc2o1 |  | inactive: -24.5%
45 | N#Cc1ccccc1NC(=O)COc1c(Br)cc(Br)c2cccnc12 | inconclusive [inhibitor, single point] | 
46 | Cc1ccc(-c2c[n+]3c(n2-c2ccccc2)SCC3)cc1 | active: 3.26 µM | 
47 | O=C(/C(=C/O)N=Nc1ccccc1)c1ccncc1 | inconclusive [inhibitor, single point] | 
48 | COC(=O)c1sccc1NC(=O)c1cc(-c2cc(C)ccc2C)nc2ccccc12 | inconclusive [inhibitor, partial curve] | 

Row | Structure (SMILES) | Potency | activity change, negative = growth inhibition
49 | CC(=O)c1c(C)[nH]c(C(=O)CN2C(=O)NC(C)(CCC(C)C)C2=O)c1C (stereo not given) |  | inactive: -28.6%
50 | CC(C)CCNC(=O)c1ccc2c(c1)N(Cc1ccccc1)C(=O)CS2=O (stereo not given) | active: 20.6 µM | 
51 | COc1cccc(CNC(=O)c2cnc(-c3ccccn3)nc2C(F)(F)F)c1 |  | inactive: -12.7%
52 | Cn1cnc2c(N/N=C/c3cccs3)ncnc21 | inconclusive [inhibitor, single point] | 
53 | COc1cccc(C2=NOC(C(=O)N3CCN(c4ccccc4)CC3)C2)c1OC (stereo not given) | inconclusive [inhibitor, single point] | 
54 | Cn1c(SCC(=O)Nc2ccc3nc(SCC(=O)N4CCCC4)sc3c2)nnc1-c1ccccc1 |  | inactive: -10.9%
55 | O=C(CSc1nc(=O)n(Cc2cccnc2)c2c1CCC2)Nc1ccc(F)cc1F |  | inactive: -2.59%
56 | COc1cc(C(=O)Nc2ccc3c(c2)ncn3C)cc(OC)c1OC | active: 4.11 µM | 
57 | CC(=O)OCC1=C(C(=O)O)N2C(=O)[C@@H](NC(=O)Cc3ccccc3)[C@H]2SC1 | inconclusive [inhibitor, single point] | 
58 | N#Cc1cccc(C(=O)Nc2cc(S(=O)(=O)N3CCOCC3)ccc2N2CCCC2)c1 |  | inactive: 18%
59 | CC1CCCN(CCCNC(=O)c2ccc(N3CCCC3=O)cc2)C1 (stereo not given) |  | inactive: 12.4%
60 | COc1cc(F)ccc1-c1csc(C(C)(O)c2ccc(F)c(F)c2)n1 (stereo not given) | inconclusive [inhibitor, single point] | 
61 | COc1ccc(-c2nnc(NC(=O)c3cccs3)s2)c(OC)c1 | active: 16.4 µM | 
62 | CN(C)S(=O)(=O)N1CCC(Oc2ccc(C(=O)NC3Cc4ccccc4C3)cc2)CC1 | inconclusive [inhibitor, single point] | 
63 | O=c1oc2ccccc2n1Cc1cccc(C(F)(F)F)c1 |  | inactive: -25.2%
64 | Cc1cc(NC(=O)Nc2cccc(Cl)c2)n(C(C)(C)C)n1 | inconclusive [inhibitor, single point] | 
65 | CCCCN1CCc2nc(N3CCN(C)CC3)ncc2C1 |  | inactive: -19.4%
66 | CCc1ccc(CCC(=O)N2CCN(S(=O)(=O)c3ccc(Br)cc3)CC2)cc1 | inconclusive [inhibitor, single point] | 
67 | O=c1oc2ccccc2c(CNc2ccccc2)c1[N+](=O)[O-] |  | inactive: 3.02%
68 | COCCn1c(=O)c(-c2cccs2)nc2cnc(Oc3ccc(OC)cc3)nc21 | inconclusive [inhibitor, single point] | 
69 | CCCOc1ccc(S(=O)(=O)NCCCN2CCOCC2)c2ccccc12 | inconclusive [inhibitor, single point] | 
70 | C=C(C)COc1ccc(-c2nc(N)ncc2-c2ccc(Br)cc2)c(O)c1 | inconclusive [inhibitor, single point] | 

Source: PubChem BioAssay AID686979 (National Center for Advancing Translational Sciences (NCATS), 2013)
